Measurements published in PubChem BioAssay AID1345083 (National Center for Advancing Translational Sciences (NCATS), 2018).
Hit rate of the full screen: of about 94,000 compounds, about 6,200 (6.6%) were called active. Inconclusive results, whose numbers are uncertain, are shown with a selection of clear calls. Calls come from the whole dose curve; as a rule, active = well fitted inhibition curve with a large enough effect; inconclusive = small, poorly fitted or top-dose-only effect; inactive = flat fitted curve, though single readings scatter. A potency beside an inconclusive call is a rough fit, not a confirmed value.

Experiment: Cytotoxic Profiling in HEK 293 Cell Line of Diverse Libraries Using Quantitative High-Throughput Screening; note: nearly all actives have a fitted effect of over 60% in size
Conditions: HEK 293 viability, ATP luminescence (CellTiter-Glo), 48-72 h; series mostly up to 115 µM
Outline: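 HEK 293 cells seeded at 250 cells/well were exposed to compound for 48 or 72 hr at 37 degree Celsius. Viability taken as ATP content by CellTiter-Glo luminescence.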
Potency is the fitted concentration of half-maximal effect; tags give direction and shape of the fitted curve.

Row | Compound | Potency
1 | CCC(C)NC(=O)C1(c2ccc(NS(C)(=O)=O)cc2)CCCCC1 (configuration not stated) | inactive
2 | Cc1ccc(C(=O)NC2CCN(c3nc4ncccc4o3)CC2)cc1 | inactive
3 | CCc1noc(-c2ccn3c(CNC(=O)c4cccnc4)nnc3c2)n1 | inactive
4 | COc1ccc(F)cc1S(=O)(=O)N1CCC(CC(=O)NCc2ccccc2)C1 (configuration not stated) | inactive
5 | COc1ccc(CN2CCCOC(CN3CCCCC3)C2)cc1C(=O)O (configuration not stated) | inactive
6 | COc1ccc(CN2CCC23Cc2ccccc2NC3=O)cc1 (configuration not stated) | inconclusive: 112 µM [inhibitor, partial curve, poor fit]
7 | Cc1cc(C(=O)NCC2CCCCC(=O)N2)n(C)n1 (configuration not stated) | inactive
8 | Cc1ccc(C(=O)N2CCC3(CC2)CC(N(Cc2ccc(F)cc2)C2CC2)CCO3)cn1 (configuration not stated) | inconclusive: 44.7 µM [inhibitor, partial curve, poor fit]
9 | O=C(NCCCn1ccnc1)c1nc(-c2ccccc2)cc2[nH]ccc12 | inconclusive: 100 µM [inhibitor, partial curve, poor fit]
10 | COCCN1C(=O)N(CCCc2cccnc2)C(=O)C12CCN(C/C=C/c1ccc(OC)cc1)CC2 | inconclusive: 39.8 µM [inhibitor, partial curve, poor fit]
11 | CNC(=O)c1cc(C2CC2)nc2c1c(C1CCCN1C(=O)c1ccccc1Cl)nn2C (configuration not stated) | inactive
12 | FC(F)(F)Oc1ccccc1Cn1ccnc1-c1cc2n(n1)CCNC2 | inconclusive: 89.1 µM [inhibitor, single point]
13 | CCO[C@@H]1COCC[C@H]1NC(=O)CN1C(=O)COc2ccc(C)cc21 | inactive
14 | CCOCC(=O)N1CCCCCCNC(=O)[C@@H]2C[C@@H](c3nc(-c4cccnc4)no3)C[C@@H]21 | inactive
15 | OCC1CN(C2CCC2)CC12CCN(Cc1cc(F)c(F)c(F)c1)CC2 (configuration not stated) | inconclusive: 44.7 µM [inhibitor, partial curve, poor fit]
16 | COc1ccc(-c2cc(N3CCC(NC(=O)Cc4ccsc4)CC3)n[nH]2)cc1 | inconclusive: 89.1 µM [inhibitor, single point]
17 | Cc1noc(-c2ccc(OC(F)(F)F)cc2)c1C(=O)NCCC(c1ccccc1)c1ccccc1 | active: 35.5 µM
18 | COc1ccc(-c2cc3c(=O)n(CCNC(=O)c4ccccn4)ccn3n2)cc1 | inactive
19 | COc1cccc(-c2cn3c(n2)N(C(=O)Cn2ccnc2C)CCC3)c1 | inconclusive: 39.8 µM [inhibitor, full curve, poor fit]
20 | CN(C)C(C(=O)N1CCN(c2ccc(C#N)cc2)CC1)c1ccccc1F (configuration not stated) | inconclusive: 35.5 µM [inhibitor, partial curve, poor fit]
21 | CO[C@H]1C(=O)N(C2CCN(C(=O)c3ccccn3)CC2)[C@H]1c1ccncc1 | inactive
22 | N#Cc1cccc(NC(=S)N[C@H]2CO[C@H]3[C@@H]2OC[C@@H]3n2nnnc2Oc2ccc3c(c2)OCO3)c1 | inconclusive: 89.1 µM [inhibitor, single point]
23 | CN(Cc1nccs1)Cc1cccn1C | inconclusive: 141 µM [inhibitor, single point]

Row | Compound | Potency
24 | COc1cc(NC(=O)c2cc3n(n2)CC(c2ccc(Br)cc2)OC3)cc(OC)c1OC (configuration not stated) | inconclusive: 11.2 µM [inhibitor, full curve, poor fit]
25 | Cn1ncc2c(C(=O)NC3CCN(Cc4ccccc4)CC3)cc(-c3ccc(C(F)(F)F)cc3)nc21 | inactive
26 | O=C(COc1ccccc1)N[C@H]1[C@H](O)[C@H](O)C[C@@H]1c1ccc(C(F)(F)F)cc1 | inconclusive: 112 µM [inhibitor, partial curve, poor fit]
27 | CC(C)CC(=O)NC1CCN(c2cnn(Cc3ccccc3)c(=O)c2)CC1 | inactive
28 | Cc1ccsc1C(=O)N1CCC(c2nc(-c3ccccc3)no2)C1 (configuration not stated) | inconclusive: 50.1 µM [inhibitor, partial curve, poor fit]
29 | COc1ccc(NC(=O)c2nc3sccn3c2-c2cccc(C(F)(F)F)c2)cc1 | inconclusive: 35.5 µM [inhibitor, full curve]
30 | COc1ccc(CNC(=O)[C@@H]2Cc3cn(Cc4ccncc4)c4cccc(c34)[C@H](CC(C)C)N2)cc1 | active: 39.8 µM
31 | O=C1CCN(C[C@@H](O)COCc2ccccc2)c2ccc(F)cc2CN1Cc1ccccc1 | active: 44.7 µM
32 | COc1cccc(C2CCN(C(=O)c3cn(CCc4ccccc4)nn3)C2)c1OC (configuration not stated) | inconclusive: 20 µM [inhibitor, full curve, poor fit]
33 | COCCn1c(=O)c(C(=O)NCc2ccc(Cl)cc2)nc2cccnc21 | inconclusive: 50.1 µM [inhibitor, partial curve, poor fit]
34 | O=C(Cc1ccsc1)N1CCC(Cc2nc(-c3ccc(F)cc3)no2)CC1 | inconclusive: 44.7 µM [inhibitor, partial curve, poor fit]
35 | COc1ccc2[nH]cc(CCNC(=O)c3ccc(N4CC5CC(C4)[C@H]4CCCC(=O)N4C5)nc3)c2c1 (some centres not stated) | inactive
36 | CN1c2cc(C(=O)Nc3ccccc3)ccc2C(=O)N2CCCCCC21 (configuration not stated) | active: 79.4 µM
37 | C[C@]1(CO)[C@H]2Cc3sc(NC(=O)c4ccc(F)cc4)nc3[C@@H](CC(=O)NCc3ccccc3)[C@]2(C)CC[C@H]1O | inconclusive: 22.4 µM [inhibitor, full curve]
38 | CC(NC(=O)c1ccc(N2CC(=O)NC2=O)cc1)c1cn2ncsc2n1 (configuration not stated) | inactive
39 | COc1ccc(-c2cccc(C(=O)N3CCN(C(=O)c4ccccn4)CC3)c2)nn1 | inactive
40 | CC(=O)NCCCC(=O)N1CCC2(CC1)CC(NC(C)=O)c1ccccc1O2 (configuration not stated) | inactive
41 | CCC(C)NC(=O)C1COC2(CCC(C)CC2)N1C(=O)c1cccc(F)c1 (configuration not stated) | inconclusive: 89.1 µM [inhibitor, single point]
42 | COc1ccccc1C(=O)N1CCC(Cc2nc(C(C)C)no2)CC1 | inconclusive: 44.7 µM [inhibitor, partial curve, poor fit]
43 | CN(C)C(=O)C1CN(C(=O)Nc2cc(F)cc(F)c2)CC12CCOCC2 (configuration not stated) | inactive
44 | Cc1cccc(C(=O)N2CCCCCNC(=O)[C@H]3C[C@H](C(=O)N4CCc5ccccc5C4)C[C@H]32)c1 | inconclusive: 44.7 µM [inhibitor, partial curve, poor fit]
45 | CC(=O)Nc1ccc(C(=O)N2Cc3ccccc3OC3(CCN(C(=O)N(C)C)CC3)C2)cc1 | inactive
46 | COc1ccc(-c2ccc(C(=O)NCc3ccccc3Cl)cc2)nn1 | inactive

Row | Compound | Potency
47 | Cn1ncc2c(C(=O)NCc3ccc(Cl)cc3)cc(-c3cccnc3)nc21 | inconclusive: 50.1 µM [inhibitor, partial curve, poor fit]
48 | CCOc1ccccc1C(=O)N1CCC[C@H]1c1nc(-c2ccccc2)no1 | inconclusive: 39.8 µM [inhibitor, full curve, poor fit]
49 | CCOC(=O)C(Cc1cccc(N2CCC(Nc3ccccc3)CC2)c1F)OC (configuration not stated) | inconclusive: 50.1 µM [inhibitor, partial curve, poor fit]
50 | Clc1ccc(-c2cnc3n2C[C@H](CNCc2cccnc2)OC3)cc1 | inconclusive: 100 µM [inhibitor, partial curve, poor fit]
51 | COC(=O)N1CC(CN2C(=O)c3c(c(C)nn3-c3ccccc3)C2C2CC2)C1 (configuration not stated) | inconclusive: 39.8 µM [inhibitor, partial curve]
52 | C1CNC(c2nc(C3CCOCC3)no2)C1 (configuration not stated) | inconclusive: 89.1 µM [inhibitor, single point]
53 | COc1ccc(-c2nc(C3CC(=O)N(c4ccc(C)cc4)C3)no2)c(OC)c1 (configuration not stated) | inconclusive: 8.91 µM [inhibitor, full curve, poor fit]
54 | O=C(c1ccc(-c2cccs2)cc1)N1CCC(N[S+](=O)([O-])c2cccs2)CC1 | active: 44.7 µM
55 | Cn1nc(C2CCCN(C(=O)CCc3ccccc3)C2)n(C2CCCC2)c1=O (configuration not stated) | inconclusive: 28.2 µM [inhibitor, partial curve, poor fit]
56 | C[S+](=O)([O-])NC1CCN(Cc2cccc(-c3cccs3)c2)CC1 | inconclusive: 50.1 µM [inhibitor, partial curve, poor fit]
57 | O=C(c1ccc2c(c1)OCO2)N1CCc2nc(C3CC3)nc(-c3ccc(Cl)cc3)c2C1 | inactive
58 | CN(C)CC(=O)N1CCC2(C1)CN(C)c1ccc(C(=O)NCc3ccccc3)cc12 (configuration not stated) | inconclusive: 100 µM [inhibitor, partial curve, poor fit]
59 | O=C(NC1CC1)C1CCCCN1Cc1ccc(-c2ccsc2)cc1 (configuration not stated) | inconclusive: 31.6 µM [inhibitor, partial curve, poor fit]
60 | Cc1ccccc1C(=O)N1CCc2nc(C3CC3)nc(-c3ccc(O)cc3)c2C1 | inconclusive: 100 µM [inhibitor, single point]
61 | Cn1ncc2c(C(=O)NCc3ccc(C(F)(F)F)cc3)cc(-c3ccccc3F)nc21 | active: 31.6 µM
62 | COc1ccc(F)cc1-c1cccc(C(=O)NCCN[S+](=O)([O-])CCC(F)(F)F)c1 | active: 79.4 µM
63 | O=C(Nc1ccccc1F)C1CCCN(Cc2cccc(-c3cccs3)c2)C1 (configuration not stated) | inconclusive: 44.7 µM [inhibitor, partial curve, poor fit]
64 | c1cc(-c2ccc(CN3CCC4(CCNCC4)C3)o2)[nH]n1 | inactive
65 | Cc1nn(CCC#N)c(C)c1[C@@H]1C=C[C@@H](NS(=O)(=O)c2cccs2)C1 | inactive
66 | CN(Cc1ccccc1)Cc1cc(C[C@@H]2CC[C@H](O)[C@@H](CNCc3ccccc3)O2)no1 | inactive
67 | COc1ccc(F)cc1-c1ccc(CN2CCC(NC(=O)NC3CCCC3)C2)cc1 (configuration not stated) | active: 20 µM
